Data taken from the supplement of paper PMC2702839.
Where a name gives a salt, the structure may show the parent alone. The list shows a part of the results.

system: Schistosoma mansoni schistosomula; experiment: phenotypic hit in primary schistosomula screen (any phenotype vs DMSO control) (binary (1 = hit, 0 = no phenotype)); higher = active (phenotype induced); conditions: 1 µM; time (d): 7

Row | SMILES | phenotypic hit
1 | COc1cc(C)c(C(=O)Oc2cc(C)c(C(=O)O)c(O)c2C)c(OC)c1C [diffractaic acid] | active: 1
2 | O=C1NCC2(CCN(CCc3ccccc3)CC2)O1 [fenspiride hydrochloride] | inactive: 0
3 | CCCNC(=O)NS(=O)(=O)c1ccc(Cl)cc1 [Chlorpropamide] | inactive: 0
4 | CCN(CC)C(C)CN1c2ccccc2Sc2ccccc21 (stereo not drawn) [ethopropazine hydrochloride] | inactive: 0
5 | O=C1CCCCC/C=C\CCCCCCCCO1 [ambrettolide] | inactive: 0
6 | N=C(N)NCCCCNC(=N)N [Arcaine sulfate] | inactive: 0
7 | Clc1cccc(Cl)c1NC1=NCCN1 [Clonidine hydrochloride] | inactive: 0
8 | C=CC(C)(C)c1c2c(c(O)c3c(=O)c4ccc(O)c(O)c4oc13)C=CC(C)(C)O2 [macluroxanthone] | inactive: 0
9 | NCCCCCC(=O)O [aminocaproic acid] | inactive: 0
10 | CNCCc1ccccn1 [betahistine hydrochloride] | inactive: 0
11 | NC(Cn1ccc(=O)c(O)c1)C(=O)O (stereo not drawn) [mimosine] | inactive: 0
12 | CN1CCN(CC(=O)N2c3ccccc3C(=O)Nc3cccnc32)CC1 [Pirenzepine dihydrochloride] | inactive: 0
13 | COC(=O)Nc1nc2cc(Sc3ccccc3)ccc2[nH]1 [fenbendazole] | inactive: 0
14 | COc1ccccc1-c1cc(=O)c2c(OC)cccc2o1 [5,2'-dimethoxyflavone] | inactive: 0
15 | CC(=O)OC1CC(O)C(C)(C)C2CC(=O)C3(C)C(CCC4(C)C(c5ccoc5)OC(=O)C5OC543)C12C (stereo not drawn) [7-deacetoxy-3-deacetyl-7-oxokhivorin] | inactive: 0
16 | C[C@@](Cc1ccc(O)c(O)c1)(NN)C(=O)O [carbidopa] | inactive: 0
17 | O=c1[nH]cnc2nc[nH]c12 [hypoxanthine] | inactive: 0
18 | Nc1ncnc2c1ncn2[C@@H]1O[C@H](CO)[C@@H](O)[C@@H]1O [vidarabine] | inactive: 0
19 | CCC1(c2ccccc2)C(=O)NCNC1=O [Primidone] | inactive: 0
20 | N#Cc1ccc2c(c1)N(CCCN1CCC(O)CC1)c1ccccc1S2 [periciazine] | inactive: 0
21 | Oc1c(Cl)cc(Cl)c2cccnc12 [chloroxine] | inactive: 0
22 | NC[C@@H]1O[C@H](O[C@H]2[C@@H](O)[C@H](O[C@@H]3[C@@H](O)[C@H](N)C[C@H](N)[C@H]3O[C@H]3O[C@H](CO)[C@@H](O)C[C@H]3N)O[C@@H]2CO)[C@H](N)[C@@H](O)[C@@H]1O[C@H]1O[C@H](CO)[C@@H](O)[C@H](O)[C@@H]1O [lividomycin sulfate] | inactive: 0
23 | CN(C)CCC(c1ccc(Br)cc1)c1ccccn1 (stereo not drawn) [brompheniramine maleate] | inactive: 0

Row | SMILES | phenotypic hit
24 | COC(=O)c1c(OC)cc2c(c1C)Oc1c(Cl)c(O)c(Cl)c(C)c1C(=O)O2 [gangaleoidin] | inactive: 0
25 | COc1cc(CNC(=O)CCCC/C=C/C(C)C)ccc1O [e-capsaicin] | inactive: 0
26 | O=C(O)[C@@H]1[C@H]2C[C@H]3c4[nH]c5ccccc5c4CCN3C[C@@H]2CC[C@@H]1O [yohimbic acid] | inactive: 0
27 | CO/N=C(\C(=O)N[C@@H]1C(=O)N2C(C(=O)O)=C(COC(C)=O)CS[C@H]12)c1csc(N)n1 [cefotaxime sodium] | inactive: 0
28 | O=C(O)c1c2ccccc2cc2ccccc12 [anthracene-9-carboxylic acid] | inactive: 0
29 | C=C1C2CCC3(C)C(c4ccoc4)OC(=O)CC13OC1CC(=O)C(C)(C)C(CC(=O)OC)C12C (stereo not drawn) [angolensic acid, methyl ester] | inactive: 0
30 | COc1cccc2c1CCC1CC(=O)CC[C@]21C (stereo partly drawn) [14-methoxy-4,4-bisnor-8,11,13-podocarpatrien-3-one] | inactive: 0
31 | OC[C@@H](O)[C@@H](O[C@@H]1O[C@H](CO)[C@@H](O)[C@H](O)[C@H]1O)[C@H](O)[C@@H](O)CO [glucitol-4-gucopyanoside] | active: 1
32 | COc1cc(O)c2c(=O)cc(C)oc2c1CC=C(C)C [heteropeucenin, methyl ether] | inactive: 0
33 | COC(=O)C[C@H]1C(C)(C)[C@@H](OC(=O)C(C)C)[C@@H]2CC3=C4CC(=O)O[C@@H](c5ccoc5)[C@]4(C)CCC3[C@@]1(C)C2=O (stereo partly drawn) [fissinolide c] | inactive: 0
34 | CC(=O)O[C@@H]1/C=C/[C@@](C)(O)C(=O)[C@@H](C)C/C=C/[C@H]2[C@@H]3O[C@]3(C)[C@@H](C)[C@H]3[C@H](Cc4ccccc4)NC(=O)[C@@]312 [cytochalasin q] | active: 1
35 | C[N+](C)(C)CC(O)CC(=O)[O-] (stereo not drawn) [carnitine hydrochloride] | inactive: 0
36 | CC(C)Oc1ccc2c(=O)c(-c3ccccc3)coc2c1 [ipriflavone] | inactive: 0
37 | CC(=O)Nc1nnc(S(N)(=O)=O)s1 [Acetazolamide] | inactive: 0
38 | CC(=O)Nc1c(I)cc(I)c(C(=O)O)c1I [acetriazoic acid] | inactive: 0
39 | CC(=O)O[C@]1(C)CC[C@@]23C[C@H]1C(C)(C)[C@@H]2CC[C@H]3C [cedryl acetate] | inactive: 0
40 | Cc1cc2cc3c(C)cc(=O)oc3c(C)c2o1 [trioxsalen] | inactive: 0
41 | CC(=O)O[C@@H]1CC2C(C)(C)CCC[C@]2(C)C2CC[C@]3(C)C(=CC(=O)O[C@H]3c3ccoc3)[C@@]21C (stereo partly drawn) [deoxodeoxydihydrogedunin] | inactive: 0
42 | CCN(CC)CCNC(=O)c1ccc(N)cc1 [Procainamide hydrochloride] | inactive: 0
43 | CCCCCCOc1ccccc1C(N)=O [exalamide] | inactive: 0
44 | COc1ccc(-c2coc3c(OC)c(OC)cc(OC)c3c2=O)cc1 [isotectorigenin trimethyl ether] | inactive: 0
45 | O=C(Oc1cc(O)cc2c1C[C@@H](OC(=O)c1cc(O)c(O)c(O)c1)[C@@H](c1cc(O)c(O)c(O)c1)O2)c1cc(O)c(O)c(O)c1 [epigallocatechin 3,5-digallate] | inactive: 0
46 | C[C@@H]1CCC[C@H](C)N1NC(=O)c1ccc(Cl)c(S(N)(=O)=O)c1 [clopamide] | inactive: 0

Row | SMILES | phenotypic hit
47 | CC[C@H]1OC(=O)[C@H](C)[C@@H](O[C@H]2C[C@@](C)(OC)[C@@H](O)[C@H](C)O2)[C@H](C)[C@@H](O[C@@H]2O[C@H](C)C[C@H](N(C)C)[C@H]2O)[C@](C)(O)C[C@@H](C)CN(C)[C@H](C)[C@@H](O)[C@]1(C)O [azithromycin] | inactive: 0
48 | CC(=O)c1cc(CC=C(C)C)c(O)c(CC=C(C)C)c1 [3,5-diprenyl-4-hydroxyacetophenone] | inactive: 0
49 | CCOC(=O)C(Cc1ccc(O)cc1)NC(C)=O (stereo not drawn) [acetyl tyrosine ethyl ester] | inactive: 0
50 | COc1cc2c(cc1/C=C/C(=O)c1cc(OC)c(OC)cc1OC)OCO2 [6-methoxyprosogerin b diethyl ether] | active: 1
51 | COC(=O)C(O)c1ccccc1 (stereo not drawn) [mandelic acid, methyl ester] | inactive: 0
52 | Nc1ccc(S(=O)(=O)Nc2nccs2)cc1 [sulfathiazole] | inactive: 0
53 | O=c1c(-c2ccc3c(c2)OCO3)coc2cc(O)ccc12 [pseudobaptigenin] | inactive: 0
54 | COc1cc2ccc(=O)oc2c(O)c1O [fraxetin] | inactive: 0
55 | CC(C)[N+]1(C)[C@@H]2CC[C@H]1C[C@@H](OC(=O)C(CO)c1ccccc1)C2 (stereo partly drawn) [ipratropium bromide] | inactive: 0
56 | COC(=O)C[C@H]1C(C)(C)C2(Cl)O[C@@]34CC2C(=O)[C@]1(C)C3CC[C@]1(C)C4=CC(=O)O[C@H]1c1ccoc1 (stereo partly drawn) [3-chloro-8beta-hydroxycarapin, 3,8-hemiacetal] | inactive: 0
57 | Cc1ccc(-c2cc(C(F)(F)F)nn2-c2ccc(S(N)(=O)=O)cc2)cc1 [celecoxib] | inactive: 0
58 | COc1ccc2c(=O)c(-c3ccc(O[C@@H]4O[C@H](CO)[C@@H](O)[C@H](O)[C@H]4O)cc3)coc2c1 [isoononin] | inactive: 0
59 | COc1c(Cl)ccc(Cl)c1C(=O)O [dicamba] | inactive: 0
60 | NC[C@H]1O[C@H](O[C@H]2[C@H](O)[C@@H](O[C@H]3O[C@H](CO)[C@@H](O)[C@H](N)[C@H]3O)[C@H](N)C[C@@H]2N)[C@H](N)C[C@@H]1O [tobramycin] | inactive: 0
61 | CCN(CCCCOC(=O)c1ccc(OC)c(OC)c1)C(C)Cc1ccc(OC)cc1 (stereo not drawn) [mebeverine hydrochloride] | inactive: 0
62 | Cc1cc(C(C)(C)C)cc(C)c1CC1=NCCN1 [xylometazoline hydrochloride] | inactive: 0
63 | CC(C)C[C@@H](NC(=O)OCC1c2ccccc2-c2ccccc21)C(=O)O | inactive: 0
64 | CCN(CC)CCOCCOC(=O)C1(c2ccccc2)CCCC1 [Carbetapentane citrate] | inactive: 0
65 | Cc1cc(=O)c2c(O)c3c(cc2o1)OCC(C)CC3 (stereo not drawn) [dihydroptaeroxylin] | inactive: 0
66 | CC(=O)O[C@@H]1CC(=O)[C@@]2(C)C(CC(=O)[C@]3(C)C2CC[C@@]2(C)[C@H](c4ccoc4)OC(=O)C4OC423)C1(C)C (stereo partly drawn) [1,7-dideacetoxy-1,7-dioxokhivorin] | inactive: 0
67 | CCCCC1C(=O)N(c2ccccc2)N(c2ccc(O)cc2)C1=O (stereo not drawn) [oxyphenbutazone] | inactive: 0
68 | O=C(CCBr)N1CCN(C(=O)CCBr)CC1 [pipobroman] | inactive: 0
